# According to the supplement of paper PMC8728848:
# Some of the results follow.
# B1: Epa1-NP-mutant-E227A (Candida glabrata), Q6VBJ0 (protein)
# chain: MILNPALFLNKCVCIYTTLILLLLTNGGYATSSNDISLASKDPTTFPLGCSPDITTPKKGLSMELYSYDFRKKGSYPCWDAAYLDPNYPRTGYKSHRLLAKVDGVTGNINFYYHATKGCTPQLGHLPASYNYPKPLTMTNFTMLLYGYFRPKVTGFHTFTISADDLLFVNFGAGNAFDCCRRDSSADHFGNYQAYAIWGSKTAKDELTVHLDAGVYYPIRLFYNNRAYDGALSFTFKTESNENTVSDFSEYFFSLDDTEEGCPGLISYDSSCASVKTSKIIGIDYHTETPNENLVPITKTIYHLGIPCTGTTTTPLCGSGFYDPLANKCVTINTSSTSSVTKTTSHTTSKEVSFHSSISSQKTLIPKSIPSPYGPIKSQSIPTEMETSSEISSSEYAFSDVISTPSHSPYTKKHSSLNSSSYTSTVIHSLTSYSISQGIFSTSLSEQNITSKSSTDKFSTATSMSNNITQSSIIISQFSTNNENYTTTSMHTSSDKISTETLNNSISTTTSILFSNSSTILKNNTTIISSDKDTHYHPVNPTIVCSTNKTEIICASITQPSISNSNNHWSSSVLKFNSTTVRSTLPSSAGSNETSINVPFSSSTESNTSTSSTSTSNSKMVRSTLPSSAGSNETSISVPFSSSTESNTSTSSTSTSNSKMVRSTLPSSAGSNETSINVPFSSSTESNTSTSSTSTSNSKTVRSTPFSSAGIIMTSLSQRNNKSASSYASSNSKCYNTADSCRKVHSTPSYLLTSSYTSEGVDYDCSLVSTKLKINDTNCVNNKHTTKSCLKTSVTTTIPTLEIKTARKSSSNTIGLHSYPTSSPNKSISSAPIIGYISSFKTIKTASPSYQTSDLTTITTITSLNNPGSTAVENTHESNDKSRKTSSNDISSKHSVIKETKDAVESSNKSHQTNTLKCSSIIIASSSHNSYESLGGTTLTLTLSKVYSPQNNDTLPFLEISEVNPSRTVLPESSKMMQYLTSTEERNKTARNTIATNIVSISTFHFEGEGNAIRMGYTQLLLMLIGIIVMNIGT
# Assays:
# Assay in all cases: glycan array binding signal (z-score within array); higher = stronger binding
# Settings in all cases: glycan notation: IUPAC condensed, linker removed; mutation: E227A
# [1] = target: Neu5Gc(a2-8)Neu5Gc(a2-3)Gal(b1-4)GlcNAc(b1-3)Gal(b1-4)GlcNAc
# Summary of the method: (§1)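 From the Consortium for Functional Glycomics database, 3228 arrays were curated, keeping only those whose protein sequence was available. Binding is given as a within-array Z-score averaged across arrays sharing a protein sequence and across linkers. Negative Z-scores can be read as non-binding.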
# [2] = target: Neu5Gc(a2-8)Neu5Gc(a2-6)Gal(b1-4)GlcNAc
# Summary of the method: as §1
# [3] = target: Neu5Gc(b2-6)Gal(b1-4)GlcNAc
# Summary of the method: as §1
binder,measurement,setting,value
B1,glycan array binding signal (z-score),[1],-0.222
same,glycan array binding signal (z-score),[2],-0.213
same,glycan array binding signal (z-score),[3],-0.198
